From the supplement of paper PMC12217912
The list shows a part of the results. Sequences were assembled here from the parent chain. Inactive controls read about 0.05.

B1: TEV protease; numbered along this chain (parent)
chain: MGESLFKGPRDYNPISSSICHLTNESDGHTTSLYGIGFGPFIITNKHLFRRNNGTLVVQSLHGVFKVKDTTTLQQHLVDGRDMIIIRMPKDFPPFPQKLKFREPQREERICLVTTNFQTKSMSSMVSDTSCTFPSGDGIFWKHWIQTKDGQCGSPLVSTRDGFIVGIHSASNFTNTNNYFTSVPKNFMELLTNQEAQQWVSGWRLNADSVLWGGHKVFMVKPEEPFQPVKEATQL

Variants of: B1
Experiment: raw area under fraction-flipped curve 0-4 h after induction (AUC4h, not background-subtracted), DNA-recorder readout of cleavage of the substrate (dimensionless); higher = more cleavage of the substrate by the protease variant
Details: temperature: 34 °C; time window: 0-4 h after rhamnose induction
Procedure: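 In vivo DNA recorder in E. coli TOP10(DE3) ΔrhaA at 34 °C. Each TEVp single-site mutant (parent TEVp 0) is paired with a single-site variant of the 7-mer TEVs (canonical ENLYFQ|S). The substrate sits between flexible linkers in a Bxb1-sfGFP-TEVs-SsrA fusion, so cleavage stabilises Bxb1 and speeds flipping of a recombination array, read by NGS. The value is the raw area under the fraction-flipped curve over 0-4 h after rhamnose induction (AUC4h), with ≥20 reads per time point. It is not background-subtracted; inactive controls average about 0.047.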
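Further: Bxb1 expression induced with 0.2% (w/v) L-rhamnose at OD600 near 0.5, cultures sampled hourly, flipped fraction per protease–substrate barcode pair counted by paired-end Illumina sequencing.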

Variant | area with substrate ENLYFAS | area with substrate ENLYFPS | area with substrate ENLYFRS | area with substrate ENLYFDS | area with substrate ENLYFES | area with substrate ENLYFIS | area with substrate ENLYFKS | area with substrate ENLYFMS | area with substrate ENLYFNS | area with substrate ENLYFTS | area with substrate ENLYFYS | area with substrate ENLYFCS | area with substrate ENLYFFS | area with substrate ENLYFGS | area with substrate ENLYFLS | area with substrate ENLYFSS | area with substrate ENLYFVS | area with substrate ENLYFHS | area with substrate ENLYFWS
MGESLFKGPRDYNPISSSICHLTNESDGHTTSLYGIGFGPFIITNKHLFRRNNGTLVVQSLHGVFKVKDTTTLQQHLVDGRDMIIIRMPKDFPPFPQKLKAREPQREERICLVTTNFQTKSMSSMVSDTSCTFPSGDGIFWKHWIQTKDGQCGSPLVSTRDGFIVGIHSASNFTNTNNYFTSVPKNFMELLTNQEAQQWVSGWRLNADSVLWGGHKVFMVKPEEPFQPVKEATQL [F101A] | 0.0605 | 0.0329 | 0.0271 | – | – | – | – | – | – | – | – | – | – | – | – | – | – | – | –
MGESLFKGPRDYNPISSSICHLTNESDGHTTSLYGIGFGPFIITNKHLFRRNNGTLVVQSLHGVFKVKDTTTLQQHLVDGRDMIIIRMPKDFPPFPQKLKGREPQREERICLVTTNFQTKSMSSMVSDTSCTFPSGDGIFWKHWIQTKDGQCGSPLVSTRDGFIVGIHSASNFTNTNNYFTSVPKNFMELLTNQEAQQWVSGWRLNADSVLWGGHKVFMVKPEEPFQPVKEATQL [F101G] | 0.0502 | – | 0.0456 | 0.0393 | 0.0617 | 0.0338 | 0.0536 | 0.0511 | 0.0706 | 0.0479 | 0.0174 | – | – | – | – | – | – | – | –
MGESLFKGPRDYNPISSSICHLTNESDGHTTSLYGIGFGPFIITNKHLFRRNNGTLVVQSLHGVFKVKDTTTLQQHLVDGRDMIIIRMPKDFPPFPQKLKMREPQREERICLVTTNFQTKSMSSMVSDTSCTFPSGDGIFWKHWIQTKDGQCGSPLVSTRDGFIVGIHSASNFTNTNNYFTSVPKNFMELLTNQEAQQWVSGWRLNADSVLWGGHKVFMVKPEEPFQPVKEATQL [F101M] | 0.0644 | 0.0596 | 0.0834 | 0.0613 | 0.0542 | 0.0663 | – | 0.0311 | 0.0685 | 0.0629 | 0.0638 | 0.0515 | 0.0725 | 0.0536 | 0.0503 | 0.062 | 0.0538 | – | –
MGESLFKGPRDYNPISSSICHLTNESDGHTTSLYGIGFGPFIITNKHLFRRNNGTLVVQSLHGVFKVKDTTTLQQHLVDGRDMIIIRMPKDFPLFPQKLKFREPQREERICLVTTNFQTKSMSSMVSDTSCTFPSGDGIFWKHWIQTKDGQCGSPLVSTRDGFIVGIHSASNFTNTNNYFTSVPKNFMELLTNQEAQQWVSGWRLNADSVLWGGHKVFMVKPEEPFQPVKEATQL [P94L] | 0.0455 | – | – | – | 0.0546 | 0.0614 | 0.0639 | 0.0605 | 0.0823 | – | – | – | 0.0599 | – | – | – | – | – | –
MGESLFKGPRDYNPISSSICHLTNESDGHTTSLYGIGFGPFIITNKHLFRRNNGTLVVQSLHGVFKVKDTTTLQQHLVDGRDMIIIRMPKDFPHFPQKLKFREPQREERICLVTTNFQTKSMSSMVSDTSCTFPSGDGIFWKHWIQTKDGQCGSPLVSTRDGFIVGIHSASNFTNTNNYFTSVPKNFMELLTNQEAQQWVSGWRLNADSVLWGGHKVFMVKPEEPFQPVKEATQL [P94H] | 0.0573 | 0.0617 | 0.0559 | – | 0.0681 | 0.0544 | – | 0.0589 | – | – | – | 0.0623 | – | – | – | – | – | 0.0643 | –
MGESLFKGPRDYNPISSSICHLTNESDGHTTSLYGIGFGPFIITNKHLFRRNNGTLVVQSLHGVFKVKDTTTLQQHLVDGRDMIIIRMPKDFPPEPQKLKFREPQREERICLVTTNFQTKSMSSMVSDTSCTFPSGDGIFWKHWIQTKDGQCGSPLVSTRDGFIVGIHSASNFTNTNNYFTSVPKNFMELLTNQEAQQWVSGWRLNADSVLWGGHKVFMVKPEEPFQPVKEATQL [F95E] | 0.041 | 0.0436 | 0.0491 | 0.0524 | 0.0552 | 0.0502 | 0.0515 | – | 0.0512 | 0.0378 | – | – | 0.0634 | 0.0383 | 0.0329 | 0.0371 | 0.0461 | 0.0274 | 0.0342
MGESLFKGPRDYNPISSSICHLTNESDGHTTSLYGIGFGPFIITNKHLFRRNNGTLVVQSLHGVFKVKDTTTLQQHLVDGRDMIIIRMPKDFPPPPQKLKFREPQREERICLVTTNFQTKSMSSMVSDTSCTFPSGDGIFWKHWIQTKDGQCGSPLVSTRDGFIVGIHSASNFTNTNNYFTSVPKNFMELLTNQEAQQWVSGWRLNADSVLWGGHKVFMVKPEEPFQPVKEATQL [F95P] | 0.048 | 0.061 | – | 0.0435 | 0.0476 | 0.0547 | 0.0489 | 0.0345 | 0.06 | – | 0.0595 | – | 0.0459 | 0.057 | – | 0.0386 | 0.0325 | 0.0383 | –
MGESLFKGPRDYNPISSSICHLTNESDGHTTSLYGIGFGPFIITNKHLFRRNNGTLVVQSLHGVFKVKDTTTLQQHLVDGRDMIIIRMPKDFPPFPQKLPFREPQREERICLVTTNFQTKSMSSMVSDTSCTFPSGDGIFWKHWIQTKDGQCGSPLVSTRDGFIVGIHSASNFTNTNNYFTSVPKNFMELLTNQEAQQWVSGWRLNADSVLWGGHKVFMVKPEEPFQPVKEATQL [K100P] | 0.0527 | 0.0566 | 0.0731 | 0.0599 | 0.0714 | 0.06 | 0.0784 | 0.0746 | – | 0.0535 | – | 0.0645 | 0.0673 | – | 0.053 | – | 0.0579 | 0.0573 | 0.0636
MGESLFKGPRDYNPISSSICHLTNESDGHTTSLYGIGFGPFIITNKHLFRRNNGTLVVQSLHGVFKVKDTTTLQQHLVDGRDMIIIRMPKDFPPFDQKLKFREPQREERICLVTTNFQTKSMSSMVSDTSCTFPSGDGIFWKHWIQTKDGQCGSPLVSTRDGFIVGIHSASNFTNTNNYFTSVPKNFMELLTNQEAQQWVSGWRLNADSVLWGGHKVFMVKPEEPFQPVKEATQL [P96D] | 0.0583 | 0.0515 | 0.053 | – | 0.0619 | 0.048 | 0.0751 | 0.0562 | – | 0.0549 | 0.0575 | – | – | – | 0.0568 | – | 0.0525 | – | –
MGESLFKGPRDYNPISSSICHLTNESDGHTTSLYGIGFGPFIITNKHLFRRNNGTLVVQSLHGVFKVKDTTTLQQHLVDGRDMIIIRMPKDSPPFPQKLKFREPQREERICLVTTNFQTKSMSSMVSDTSCTFPSGDGIFWKHWIQTKDGQCGSPLVSTRDGFIVGIHSASNFTNTNNYFTSVPKNFMELLTNQEAQQWVSGWRLNADSVLWGGHKVFMVKPEEPFQPVKEATQL [F92S] | 0.035 | – | – | 0.0536 | 0.0618 | 0.0526 | 0.0521 | 0.0708 | 0.0493 | – | – | 0.0522 | 0.0394 | – | 0.0587 | – | 0.0687 | 0.073 | –
